Laboratory results: patent publication US20240158504A1 (BJ BIOSCIENCE, published 2024)

B1: BJ-005-P2 (other)
heavy: EVQLVQSGAEVKKPGSSVKVSCAASGFNITDTYMHWVRQAPGQGLEWIGWIDPANGHTKSDPKFQGKATITADTSTNTAYMELSSLRSEDTAVYYCARRGDGYRYFYAMGYWGQGTLVTVSSASTKGPSVFPLAPSSKSTSGGTAALGCLVKDYFPEPVTVSWNSGALTSGVHTFPAVLQSSGLYSLSSVVTVPSSSLGTQTYICNVNHKPSNTKVDKRV[human IgG1 Fc and a few adjoining residues not listed]GGGSGGGGSGGGGSGGGGSTIPPHVQKSVNNDMIVTDNNGAVKFPQLCKFCDVRFSTCDNQKSCMSNCSITSICEKPQEVCVAVWRKNDENITLETVCHDPKLPYHDFILEDAASPKCIMKEKKKPGETFFMCSCSSDECNDNIIFSEEYNTSNPD
light: DIQMTQSPSTLSASVGDRVTITCRASQDISNYLNWYQQKPDQSPKLLIYYTSRLRSGVPARFSGSGSGTEYTLTISSLQPDDFATYYCQQGNTLPPTFGQGTKVEVKRTVAAPSVFIFPPSDEQLKSGTASVVCLLNNFYPREAKVQWKVDNALQSGNSQESVTEQDSKDSTYSLSSTLTLSKADYEKHKVYACEVTHQGLSSPVTKSFNRGEC
B2: BJ-005-P1 (other)
heavy: EVQLVQSGAEVKKPGSSVKVSCAASGFNITDTYMHWVRQAPGQGLEWIGWIDPANGHTKSDPKFQGKATITADTSTNTAYMELSSLRSEDTAVYYCARRGDGYRYFYAMGYWGQGTLVTVSSASTKGPSVFPLAPSSKSTSGGTAALGCLVKDYFPEPVTVSWNSGALTSGVHTFPAVLQSSGLYSLSSVVTVPSSSLGTQTYICNVNHKPSNTKVDKRV[human IgG1 Fc and a few adjoining residues not listed]GGGSGGGGSGGGGSGGGGSTIPPHVQKSVNNDMIVTDNNGAVKFPQLCKFCDVRFSTCDNQKSCMSNCSITSICEKPQEVCVAVWRKNDENITLETVCHDPKLPYHDFILEDAASPKCIMKEKKKPGETFFMCSCSSDECNDNIIFSEEYNTSNPD
light: B1 light with D41G, Q42K, S43A
B3: BJ-005-P3 (other)
heavy: EVQLVQSGAEVKKPGSSVKVSCAASGFNIKDNYIHWVRQAPGQGLEWIGWIDPANTNTKYDPKFQGKATITADTSTNTAYMELSSLRSEDTAVYYCARRGDGYRYFYAMAYWGQGTLVTVSSASTKGPSVFPLAPSSKSTSGGTAALGCLVKDYFPEPVTVSWNSGALTSGVHTFPAVLQSSGLYSLSSVVTVPSSSLGTQTYICNVNHKPSNTKVDKRV[human IgG1 Fc and a few adjoining residues not listed]GGGSGGGGSGGGGSGGGGSTIPPHVQKSVNNDMIVTDNNGAVKFPQLCKFCDVRFSTCDNQKSCMSNCSITSICEKPQEVCVAVWRKNDENITLETVCHDPKLPYHDFILEDAASPKCIMKEKKKPGETFFMCSCSSDECNDNIIFSEEYNTSNPD
light: B1 light with N31D, Y50H, R55H

Molecular target: TGF-β1
Assay: cell-based or functional assay

| IC50 (nM), SEAP level of HEK-Blue TGF-β cells stimulated with TGF-β1 [nM] | Binder |
| --- | --- |
| 0.0388 | B1 |
| 0.0256 | B2 |
| 0.0579 | B3 |

Positions count from the first letter of the chain named.
